According to patent publication US20190359653A1, “SELECTIVE PEPTIDE INHIBITORS OF FRIZZLED” (Genentech, Inc., priority 2016, published 2019):

Test system: hFZD7 CRD (H84A, Y87A, F138A, F140A)
Assay: FSEC with hFZD7 CRD mutants
Type: binding, human
Conditions: FIG. 40
Source text: […]. […] […].

Sequence: LPSDDLEFWCHVMY [Fz7-21]
- binding to mutant vs wild-type hFZD7 CRD: reduced the binding
